Assay results published in the BET-seq Pho4 binding data (Le et al. 2018).
The other results are listed elsewhere or left out. The energies were worked out here from pooled read counts, against the library average; single values are noisy.

molecular target: T1, Pho4 (S. cerevisiae) (UniProt P07270); test: relative binding free energy (BET-seq); higher = weaker binding; conditions: reference: library average
T1 sequence: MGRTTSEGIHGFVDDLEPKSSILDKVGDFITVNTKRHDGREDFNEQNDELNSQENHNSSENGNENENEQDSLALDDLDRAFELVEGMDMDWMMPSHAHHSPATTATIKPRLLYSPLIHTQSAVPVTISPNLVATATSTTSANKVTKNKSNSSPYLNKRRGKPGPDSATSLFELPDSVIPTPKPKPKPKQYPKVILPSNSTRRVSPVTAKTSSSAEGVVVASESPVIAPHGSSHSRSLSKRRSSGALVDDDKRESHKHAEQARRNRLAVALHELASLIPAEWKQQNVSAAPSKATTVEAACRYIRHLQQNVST

Sequence | relative binding free energy
TCAGACACGTGTGTGG | 0.1 kcal/mol
GGGACCACGTGGTTTT | -0.01 kcal/mol
TGCTGCACGTGAGCTG | 0.23 kcal/mol
TAAGCCACGTGTAGTT | 0.07 kcal/mol
ATCTGCACGTGGGGGA | -0.11 kcal/mol
TTTCTCACGTGTTTAG | 0.18 kcal/mol
TTCTGCACGTGTATTT | 0.01 kcal/mol
TTTATCACGTGATCGG | 0.21 kcal/mol
GGGATCACGTGATGTA | 0.36 kcal/mol
CGTTTCACGTGCTGTA | 0.24 kcal/mol
CATTACACGTGTTGAG | 0.31 kcal/mol
TGGTTCACGTGTCCGG | 0.46 kcal/mol
TGAGTCACGTGATGTG | 0.29 kcal/mol
GGGGCCACGTGGCAGT | -0.12 kcal/mol
CGTGTCACGTGTATAT | 0.05 kcal/mol
GTTGGCACGTGCTGAG | -0.06 kcal/mol
ATTTTCACGTGAGGGT | 0.41 kcal/mol
GTGTGCACGTGAAGCG | 0.24 kcal/mol
TATTACACGTGCAGTG | 0.02 kcal/mol
TTAAGCACGTGAGATT | 0.16 kcal/mol
TTGGACACGTGTGGCG | 0.12 kcal/mol
AGGTGCACGTGTTGGG | 0.03 kcal/mol
AGCGGCACGTGGAGAA | 0.04 kcal/mol
CAGTACACGTGGTAGT | 0.08 kcal/mol
TCATACACGTGGTTGG | 0.01 kcal/mol
GGGGGCACGTGCACGT | -0.25 kcal/mol

Sequence | relative binding free energy
TGTGACACGTGAATGT | 0.12 kcal/mol
TGATTCACGTGTGTCG | 0.09 kcal/mol
TATTGCACGTGGCGCT | -0.1 kcal/mol
GTGCACACGTGTGAGG | -0.02 kcal/mol
GTGTACACGTGTTAAA | 0.2 kcal/mol
AGGCACACGTGTGGGC | 0.02 kcal/mol
TGGAACACGTGGGGGG | -0.03 kcal/mol
AGTATCACGTGAATTA | 0.37 kcal/mol
GAATTCACGTGTTGTT | 0.31 kcal/mol
TCCGGCACGTGTGGCG | 0.04 kcal/mol
GTTTTCACGTGATGGG | 0.36 kcal/mol
ATTGGCACGTGAGGTA | 0.07 kcal/mol
CGTATCACGTGGTGGG | 0.09 kcal/mol
GGTTTCACGTGCGCGT | 0.19 kcal/mol
TGCTTCACGTGAGGGT | 0.4 kcal/mol
AGTAGCACGTGATAGT | 0.05 kcal/mol
AGGACCACGTGGAGGG | -0.11 kcal/mol
TGTTCCACGTGCTGTT | 0 kcal/mol
GTTAGCACGTGAGGAA | 0.08 kcal/mol
TTGGGCACGTGAGTGG | 0.19 kcal/mol
ATTAGCACGTGGTGAA | -0.07 kcal/mol
TAGGGCACGTGGGTCT | -0.27 kcal/mol
AAGGTCACGTGAGAGT | 0.32 kcal/mol
CGGGGCACGTGCTGTT | -0.17 kcal/mol
AGGCTCACGTGTTAAG | 0.37 kcal/mol
TGTAACACGTGCTGGT | -0.05 kcal/mol

Sequence | relative binding free energy
TGTTCCACGTGAAATG | 0.41 kcal/mol
GTATTCACGTGCGGGC | 0.25 kcal/mol
TGAGTCACGTGTTCTA | 0.28 kcal/mol
AGTCGCACGTGGTTAT | -0.17 kcal/mol
GTCTTCACGTGCATGT | 0.29 kcal/mol
TGAGGCACGTGTATCG | -0.03 kcal/mol
AGTTTCACGTGTTAGC | 0.24 kcal/mol
TCAGGCACGTGTGGGG | -0.03 kcal/mol
CGGCACACGTGGTGTG | -0.07 kcal/mol
GATCTCACGTGGGTTT | 0.26 kcal/mol
GATGTCACGTGGTATG | 0.21 kcal/mol
CTAGTCACGTGTGTTG | 0.06 kcal/mol
TCGGCCACGTGTGTGT | -0.13 kcal/mol
TATTTCACGTGCATGA | 0.24 kcal/mol
GTCCGCACGTGTTGGG | -0.09 kcal/mol
TGAGACACGTGTGGCG | 0.06 kcal/mol
GGGGGCACGTGATGTA | -0.01 kcal/mol
CATGTCACGTGGGCAT | -0.01 kcal/mol
AAGGTCACGTGCTATT | 0.11 kcal/mol
CGGGTCACGTGGTCAG | -0.11 kcal/mol
GTTTGCACGTGGAGCT | -0.1 kcal/mol
TTATACACGTGATGGT | 0.16 kcal/mol
CTTTTCACGTGTGTAG | 0.23 kcal/mol
TTTGACACGTGGCAGG | 0 kcal/mol
GAGTTCACGTGATGTT | 0.45 kcal/mol
CTGGGCACGTGTGAGC | 0.01 kcal/mol

Sequence | relative binding free energy
ATTGGCACGTGACATA | 0.04 kcal/mol
TGCGGCACGTGCGGTG | -0.22 kcal/mol
AGGGCCACGTGTTTAA | -0.12 kcal/mol
GAGCGCACGTGGTTTT | -0.05 kcal/mol
GTTCGCACGTGTGGAG | 0 kcal/mol
TATGTCACGTGCTTTA | 0 kcal/mol
TATGCCACGTGTTTTG | -0.02 kcal/mol
GGCGGCACGTGGAAAT | 0.25 kcal/mol
GGTTTCACGTGATTAA | 0.38 kcal/mol
GAGTACACGTGTATAT | 0.15 kcal/mol
GCTGTCACGTGAGTGT | 0.23 kcal/mol
CGGGGCACGTGAGCAG | 0.15 kcal/mol
GAGAACACGTGAGTGA | 0.44 kcal/mol
GATGTCACGTGTATCG | 0.15 kcal/mol
GTACGCACGTGATGGT | 0.09 kcal/mol
AGCCTCACGTGAGGGT | 0.33 kcal/mol
TCGTACACGTGATGGG | 0.22 kcal/mol
TGTAGCACGTGGTGAG | -0.08 kcal/mol
TATAACACGTGTCGTT | -0.06 kcal/mol
TCTGTCACGTGGGGTT | -0.14 kcal/mol
GGTTCCACGTGTGTGA | 0.18 kcal/mol
TGAATCACGTGCGTTT | 0.11 kcal/mol
GGTTGCACGTGGTACT | -0.04 kcal/mol
GTCGTCACGTGTATTA | 0.12 kcal/mol
AAAAGCACGTGCGGTG | -0.08 kcal/mol
CGTGGCACGTGTTAAT | 0.01 kcal/mol

Sequence | relative binding free energy
AGGATCACGTGTGGTC | 0.2 kcal/mol
ATATGCACGTGATTAA | 0.11 kcal/mol
GAATACACGTGTTATT | 0.11 kcal/mol
GTTATCACGTGAGAAG | 0.42 kcal/mol
GGTGCCACGTGATGTG | -0.01 kcal/mol
GTGGTCACGTGGCATA | 0.06 kcal/mol
AGTATCACGTGTTTTC | 0.19 kcal/mol
TGCTGCACGTGGGGTA | -0.15 kcal/mol
GGGATCACGTGTGGTT | 0.27 kcal/mol
GAACGCACGTGGTGGT | -0.04 kcal/mol
ACGTGCACGTGTGCGG | -0.05 kcal/mol
GGGGCCACGTGGTATT | 0 kcal/mol
GTGAGCACGTGGTATA | -0.15 kcal/mol
TGTCGCACGTGGTCTT | -0.23 kcal/mol
CTGTTCACGTGCGTAT | 0.26 kcal/mol
AATCGCACGTGTTATT | 0 kcal/mol
GGTCGCACGTGAAGGA | 0.28 kcal/mol
TGAATCACGTGTACAG | 0.19 kcal/mol
TTGGTCACGTGTGGCG | 0.14 kcal/mol
GAAATCACGTGGGGAA | 0.15 kcal/mol
ACGGGCACGTGGATGT | -0.13 kcal/mol
TAGTGCACGTGATCGG | 0.04 kcal/mol
TCATTCACGTGTGAAT | 0.28 kcal/mol
TGGATCACGTGGTGCC | 0.19 kcal/mol
TTTGTCACGTGGCACT | 0.04 kcal/mol
GGTTGCACGTGAGGGT | 0.37 kcal/mol

Sequence | relative binding free energy
AGGCGCACGTGGCTGT | -0.2 kcal/mol
TGGGCCACGTGGGAGC | 0.02 kcal/mol
GTAGTCACGTGGGCCT | 0.04 kcal/mol
AATGCCACGTGGGGGA | -0.23 kcal/mol
GTATGCACGTGATCAG | 0.09 kcal/mol
GGTAGCACGTGTAGTC | 0.04 kcal/mol
GGCTCCACGTGGTGGG | -0.11 kcal/mol
AGTCACACGTGATTTT | 0.19 kcal/mol
GTGGACACGTGATGGG | 0.14 kcal/mol
TGTGTCACGTGGAACG | 0.08 kcal/mol
GCATGCACGTGAGGGA | 0.19 kcal/mol
TTAACCACGTGGGGTG | -0.2 kcal/mol
AGGGGCACGTGCATTT | -0.13 kcal/mol
GACGGCACGTGTTGGC | 0.01 kcal/mol
TTGGGCACGTGGTTTG | -0.15 kcal/mol
GAGGGCACGTGCAGCG | -0.01 kcal/mol
GTGGACACGTGTGTAC | 0.18 kcal/mol
TCGAGCACGTGTTGGG | -0.02 kcal/mol
TGGGCCACGTGGAGCG | -0.18 kcal/mol
GATGACACGTGGGGAA | 0.02 kcal/mol
GGTTTCACGTGACTGG | 0.39 kcal/mol
TAGGTCACGTGTATCT | 0.01 kcal/mol
CGGGTCACGTGGTACG | -0.03 kcal/mol
GTACGCACGTGTGAAG | 0.16 kcal/mol
GAATACACGTGTGTAA | 0.27 kcal/mol
TGCTGCACGTGTATGG | -0.08 kcal/mol

Sequence | relative binding free energy
GGTTTCACGTGTAAGC | 0.28 kcal/mol
GGGGTCACGTGAGTCG | 0.32 kcal/mol
TGGGTCACGTGTTATT | 0.18 kcal/mol
TATGTCACGTGTTTGT | 0.16 kcal/mol
GATGGCACGTGAGTTA | 0.18 kcal/mol
TTTCGCACGTGGTGAT | -0.07 kcal/mol
TTCGCCACGTGGGTAG | -0.21 kcal/mol
AGGCGCACGTGAGTAG | 0.06 kcal/mol
TTTTTCACGTGGAGAA | 0.35 kcal/mol
ATATTCACGTGATTCG | 0.25 kcal/mol
TGTTTCACGTGCGGCT | 0.23 kcal/mol
GACGACACGTGTTGGG | 0.15 kcal/mol
TGACGCACGTGAGGGT | 0.2 kcal/mol
TATTTCACGTGAGTGG | 0.33 kcal/mol
AGGATCACGTGGTATG | 0.11 kcal/mol
ATTGTCACGTGGGGCT | 0 kcal/mol
GAGGTCACGTGGGTGT | 0.04 kcal/mol
TGATTCACGTGAATAT | 0.53 kcal/mol
AGATACACGTGGGGCT | -0.05 kcal/mol
GGTAGCACGTGCCTGG | -0.15 kcal/mol
GGCTTCACGTGCGGAG | 0.28 kcal/mol
AGTGTCACGTGGGTCG | -0.09 kcal/mol
AGTGGCACGTGATTTA | -0.03 kcal/mol
AGTCTCACGTGTTGGC | 0.07 kcal/mol
AAATACACGTGTGTGG | -0.03 kcal/mol
TTTTTCACGTGGCGAT | 0.18 kcal/mol

Sequence | relative binding free energy
TGTATCACGTGAATGC | 0.37 kcal/mol
TATTTCACGTGCAGAT | 0.14 kcal/mol
TAGGTCACGTGATGGT | 0.26 kcal/mol
GATCACACGTGTGGGG | 0.14 kcal/mol
GTTAACACGTGATAAG | 0.2 kcal/mol
CTCTTCACGTGTGTTA | 0.24 kcal/mol
TCGAACACGTGTAGGG | 0.13 kcal/mol
TATTTCACGTGGGACG | 0.2 kcal/mol
GCGGGCACGTGACGGT | -0.02 kcal/mol
GTAGGCACGTGGACTG | -0.03 kcal/mol
TAGAGCACGTGGTGTG | -0.18 kcal/mol
TAAGACACGTGGAGGA | 0.16 kcal/mol
TGCTGCACGTGAGTTG | 0.2 kcal/mol
GGGGGCACGTGAATAG | 0.21 kcal/mol
TATTACACGTGTGGCG | 0.17 kcal/mol
GTTACCACGTGGGCTG | -0.03 kcal/mol
GGTTTCACGTGTTGTA | 0.3 kcal/mol
AATTTCACGTGACGGG | 0.42 kcal/mol
GTTCGCACGTGGTCGG | -0.02 kcal/mol
TGGTTCACGTGAAGGC | 0.28 kcal/mol
CTGGACACGTGGTGTA | -0.07 kcal/mol
GGCGACACGTGATGGA | 0.39 kcal/mol
AAGATCACGTGTAAGT | 0.33 kcal/mol
TTTTTCACGTGAGCTG | 0.26 kcal/mol
AGGTACACGTGTTTGA | -0.18 kcal/mol
ACGCGCACGTGTTGGG | -0.05 kcal/mol

Sequence | relative binding free energy
AGGTTCACGTGGTGGA | 0.27 kcal/mol
TGGCGCACGTGTGTAT | -0.03 kcal/mol
TATTTCACGTGTTCGG | 0.42 kcal/mol
TTTAGCACGTGTTACT | -0.15 kcal/mol
GGTCGCACGTGCGTAG | -0.05 kcal/mol
TACGGCACGTGGATGA | -0.03 kcal/mol
GGAGACACGTGATTGT | 0.11 kcal/mol
GATTTCACGTGGGATA | 0.19 kcal/mol
TTCTTCACGTGAGGGA | 0.41 kcal/mol
GCTTTCACGTGTGGCA | 0.44 kcal/mol
AATTACACGTGGAATT | 0.24 kcal/mol
CGGGTCACGTGATAAG | 0.18 kcal/mol
TCGTTCACGTGGTGTA | 0.15 kcal/mol
CGATACACGTGGTTGG | -0.04 kcal/mol
TTTGTCACGTGCATGG | 0.03 kcal/mol
TTCTTCACGTGTCAGT | 0.34 kcal/mol
TGGAGCACGTGTCGTG | -0.1 kcal/mol
TTGTTCACGTGTTGCA | 0.29 kcal/mol
GCGCTCACGTGAGGTG | 0.55 kcal/mol
TTTCTCACGTGTGCTG | 0.21 kcal/mol
CGTCGCACGTGGGTGG | -0.23 kcal/mol
GTTGACACGTGGGAAG | 0.1 kcal/mol
